Our source for the switch fluorescence ratio values is the supplement of paper PMC10126150.

Values marked as one replicate rest on one cluster of the flow cell; about a third of the high ones do not repeat.
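Also: ATP exposure 15 min at 22 °C before imaging.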

The data set relates to ATP. The data set can be described thus: switch fluorescence ratio, 500 uM ATP over buffer (Cy3 cluster intensity, sum of 5 cycles each) (fold (ratio)); higher = stronger signal-on switching upon ATP binding; sequences stand for … in TCGTCGGCAGCGTCAGATGTGTATAAGAGACAGTTTTTTTTTTTTTTTTTTTTTTTTT…TC. The note with it: aptamer strand: ATP DNA aptamer (quencher-CACCTGGGGGAGTATTGCGGAGGAAGG + anchor), 100 nM annealed; ATP concentration: 500 uM; one replicate. The gist of the method: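 Between each of five buffer/ATP cycles, the flow-cell was stripped with NaOH and re-annealed. Each cycle imaged Cy3-labelled switching-strand clusters, annealed to 100 nM quencher-labelled ATP aptamer on a modified Illumina MiSeq flow-cell, first in selection buffer and then after 15 min with 500 uM ATP at 22 °C. The fluorescence ratio is summed target-cycle over summed buffer-cycle Cy3 intensity per cluster, averaged per switch-domain sequence, with clusters outside 100-1000 RFU excluded.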
As for TAATTCTAAT, the switch fluorescence ratio worked out at 0.962.
For TTGTGCTTTT the value was 1.03; for GGACAGTAGC, 1.08; for GCAATCGTGA, 1.06.
The figure for TGGAAGATTA is 0.99; for AACGAAAATT it is 0.984; for AATACTAGGT it is 1.
Take GTAGCTTGTA: the switch fluorescence ratio came out at 1.05.
Consider AGCCTAGCCC, for which the switch fluorescence ratio stood at 0.996.
For the sequence TTAGTTGCGG, the switch fluorescence ratio stood at 1.06.
Turning to TCTACGACGG, the switch fluorescence ratio was found to be 1.03.
For the sequence ACCGAGGAAT, the switch fluorescence ratio was found to be 1.12.
For GGGAGGGTCC, the switch fluorescence ratio came out at 1.01.
The figure for AGTGTTAGGC is 1.02; for ATGAGGCAGC it is 1.26; for TTATGCGAAA it is 0.994.
For GTTGACGTAT the value was 1.09; for GGAAGAAATT, 0.972.
As to TTACTCCGGT, the switch fluorescence ratio is 1.85.
On to CTAAGAGCG, for which the switch fluorescence ratio is 0.986.
The figure for GGACGTTGCA is 1.04.
The figure for GCGAATAAAA is 1.09; for GGGGTGACGA it is 1; for GCCGGGCCCG it is 1.01.
On to GATATTTCGC, for which the switch fluorescence ratio stood at 1.03.
For ATGCCTTTTG the value was 0.979.
With TTGGTACTTG, the switch fluorescence ratio was found to be 0.979.
As for ATGGCCGGGG, the switch fluorescence ratio stood at 0.981.
In the case of GGTAGCTACG, the switch fluorescence ratio is 0.971.
For the sequence TACCTAACG, the switch fluorescence ratio amounted to 1.31.
With ATTTCCTGCT, the switch fluorescence ratio came to 0.989.
For ACATTATCAT the value was 1.01.
Take ATACGGCGGG: the switch fluorescence ratio came to 1.
Take TTCAGGACGC: the switch fluorescence ratio came to 1.09.
As to GCGGGGGTAA, the switch fluorescence ratio worked out at 0.97.
On to AATATGTGCG, for which the switch fluorescence ratio is 1.05.
TTATCAAGT: the switch fluorescence ratio worked out at 0.966.
The figure for GCCTAGTGCC is 0.982.
Regarding TATCAGTCTT, the switch fluorescence ratio came out at 0.959.
Turning to AAACTTTATA, the switch fluorescence ratio amounted to 1.02.
Consider CGAGGCTGCT, for which the switch fluorescence ratio was determined as 1.08.
On to TACTAATCTC, for which the switch fluorescence ratio turned out to be 1.08.
Consider AGTTAGTGCG, for which the switch fluorescence ratio was found to be 0.993.
For the sequence ATTCGTGTCT, the switch fluorescence ratio is 1.02.
Turning to TTGTTTGGC, the switch fluorescence ratio was determined as 0.976.
GTAATTGAC: the switch fluorescence ratio worked out at 1.04.
For AGGAGGAATC the value was 1.04.
Regarding CCCCCATAAG, the switch fluorescence ratio came to 1.6.
In the case of CGTGGACGAG, the switch fluorescence ratio amounted to 1.04.
For AAAAAGGTAT the value was 1.01.
As for GGCAACGGGA, the switch fluorescence ratio is 0.982.
With CGTTCTGTCT, the switch fluorescence ratio came out at 0.988.
Take ATAGCGGTGC: the switch fluorescence ratio was found to be 1.18.
Take CTGACATAGA: the switch fluorescence ratio came out at 1.01.
For the sequence AGGCGTAGGA, the switch fluorescence ratio amounted to 1.01.
Consider TGGCGCATAT, for which the switch fluorescence ratio was found to be 1.39.
For GATCCGGTCA, the switch fluorescence ratio was 1.04.
As for GTGTTGGTTC, the switch fluorescence ratio was found to be 0.948.
With TGACTACCGA, the switch fluorescence ratio came to 1.08.
With ACTATCCCTA, the switch fluorescence ratio turned out to be 0.987.
For ATTCCTAATT, the switch fluorescence ratio was 1.
The figure for TTAACGGAAG is 1.07; for GGCAGGATCA it is 0.999; for AAGTATATAG it is 0.95.
For GAAAGGGATA, the switch fluorescence ratio is 1.01.
On to CTATAATGCG, for which the switch fluorescence ratio was determined as 0.989.
CGACTTAGC: the switch fluorescence ratio is 0.981.
GGATAATACA: the switch fluorescence ratio stood at 0.992.
As for AAGGCCAAGG, the switch fluorescence ratio came to 1.01.
The figure for CTCGATTGAG is 0.997; for AAACCCATAC it is 1.46.
Take GCGTAGTGAG: the switch fluorescence ratio was 1.
ATTAAATTTA: the switch fluorescence ratio turned out to be 1.02.
For TCTTCATAAT the value was 0.993; for CGGGATTAAT, 1.02; for CTGGGCAAAG, 1.13.
The figure for TTTCGTAATC is 0.969; for AGATACATTT it is 1.
The figure for GCTGGGATGG is 0.984.
As to GAATGGAACC, the switch fluorescence ratio stood at 1.08.
For TAGAGCGTAC the value was 1.13; for TTGTTATGGA, 1.01.
GATTCCCATA: the switch fluorescence ratio amounted to 0.978.
On to AGAGTCCTAG, for which the switch fluorescence ratio came out at 1.
As for GTCTAAACGA, the switch fluorescence ratio came to 0.942.
On to ACCGAGGTTA, for which the switch fluorescence ratio was 0.998.
As to ATAAGTCTAT, the switch fluorescence ratio is 1.03.
For CGCATTAGCT the value was 1.21; for CTTAGCGCAG, 0.972.
For GACAATGGCC, the switch fluorescence ratio amounted to 1.03.
Consider CTGCGGCTCA, for which the switch fluorescence ratio was 1.04.
As to TCGTAATAAT, the switch fluorescence ratio came to 1.39.
For ATGCGTTAAC, the switch fluorescence ratio worked out at 1.06.
Take CGTAGTAAGG: the switch fluorescence ratio amounted to 1.14.
In the case of ATCGGTCCAT, the switch fluorescence ratio was determined as 1.
For the sequence TCAAGTTAGA, the switch fluorescence ratio was 0.985.
As to TTGTGTGCAT, the switch fluorescence ratio came to 0.999.
TGGAGACCTT: the switch fluorescence ratio turned out to be 1.21.
On to TGACACTTGC, for which the switch fluorescence ratio worked out at 1.06.
On to TGAGCTAGTA, for which the switch fluorescence ratio came out at 1.04.
As to GCGAGTGTAG, the switch fluorescence ratio turned out to be 1.05.
Turning to ATAACAGCTA, the switch fluorescence ratio was 0.987.
Regarding GGCGCCCCGT, the switch fluorescence ratio was found to be 1.02.
For CCTACTTTTA, the switch fluorescence ratio turned out to be 1.06.
On to CCTGGCCAAA, for which the switch fluorescence ratio was determined as 0.974.
For ATTTGAGGC the value was 1.01.
For GCCAACGGGC, the switch fluorescence ratio amounted to 0.958.
As to CTGTAGGGAA, the switch fluorescence ratio stood at 1.01.
For GTAAGTATTG the value was 1.02.
As for TGGTGAAGGA, the switch fluorescence ratio was determined as 0.992.
For the sequence GTTAGTGAGA, the switch fluorescence ratio came out at 0.96.
For AAGTTTTTGA, the switch fluorescence ratio is 1.01.
For the sequence TCAGGCGCTT, the switch fluorescence ratio amounted to 1.02.
With TTCGATTGGA, the switch fluorescence ratio was determined as 1.01.
TACATCTAA: the switch fluorescence ratio is 1.01.
On to GGTCTTTTC, for which the switch fluorescence ratio was determined as 0.936.
As to ACCACCGATT, the switch fluorescence ratio was 1.05.
For the sequence AAATCAGTGT, the switch fluorescence ratio is 0.999.
With GGGACTAAGT, the switch fluorescence ratio is 1.
As for TACGCCTAGC, the switch fluorescence ratio stood at 1.1.
